Test results reported in PubChem BioAssay AID1159614 (National Center for Advancing Translational Sciences (NCATS), 2016).
In all, about 45,000 compounds went through this assay and about 65 (0.1%) were called active. The call rests on the fitted dose curve; in most records, active means well fitted activation curve with a large enough effect; inconclusive means small, poorly fitted or top-dose-only effect; inactive means no such curve, though single readings can be large or run the other way. The list shows a part of the results.

biological target: Galactocerebrosidase (Homo sapiens) (UniProt P54803); assay: A Novel Cell-Based Assay to Identify Small Molecules for B -Galactocerebrosidase; conditions: 145M-Twi-hGALC-G270D cells (Twitcher mouse brain line with human GALC G270D), HMU-beta-Gal fluorescence, 48 h; series mostly up to 57.5 µM; activation: at the top concentration; further: 0% is about no effect; nearly all actives have a fitted effect of over 65% in size
Chain of UniProt P54803 (P54803 whole entry, looked up): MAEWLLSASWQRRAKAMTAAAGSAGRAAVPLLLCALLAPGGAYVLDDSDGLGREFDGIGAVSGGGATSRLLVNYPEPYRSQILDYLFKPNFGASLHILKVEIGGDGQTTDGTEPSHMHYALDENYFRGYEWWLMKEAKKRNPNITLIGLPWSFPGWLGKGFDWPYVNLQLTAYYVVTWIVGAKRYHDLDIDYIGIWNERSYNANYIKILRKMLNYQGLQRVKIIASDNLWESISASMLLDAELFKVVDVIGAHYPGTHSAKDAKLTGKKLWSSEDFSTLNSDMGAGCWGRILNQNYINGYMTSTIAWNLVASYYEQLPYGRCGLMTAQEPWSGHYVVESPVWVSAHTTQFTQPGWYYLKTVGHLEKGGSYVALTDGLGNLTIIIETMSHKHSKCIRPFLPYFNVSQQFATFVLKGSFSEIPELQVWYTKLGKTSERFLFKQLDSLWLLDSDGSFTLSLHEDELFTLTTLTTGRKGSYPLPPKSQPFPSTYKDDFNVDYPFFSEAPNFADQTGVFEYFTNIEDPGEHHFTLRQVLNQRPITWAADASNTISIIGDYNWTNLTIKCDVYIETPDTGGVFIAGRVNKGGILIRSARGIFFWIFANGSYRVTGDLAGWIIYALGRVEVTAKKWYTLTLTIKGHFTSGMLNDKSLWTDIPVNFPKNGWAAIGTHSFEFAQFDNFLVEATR
In short: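 Fluorescence readout: HMU-β-gal cleavage by mutant GALC (0.1 mM final, citrate/phosphate pH 5.2 with 1 mg/mL taurocholate), stopped with carbonate/bicarbonate plus Triton X-100. Cells: murine Twitcher 145M-Twi expressing human G270D GALC; qHTS for activators.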

activation, inactive:
CC(C(=O)Nc1ccccc1C(F)(F)F)n1nnc2sc3c(c2c1=O)CCCC3 (configuration not stated) -17.7%
Nc1ncnc2c1ncn2Cc1c(F)cccc1Cl -19.5%
CSc1nc(Nc2ccc(C)cc2)c(C#N)c(-c2ccccc2)n1 -20.3%
Cc1ccc2c(c1)C(c1ccccc1)N(C(=O)c1ccc(S(=O)(=O)N3CCCCC3)cc1)CC(=O)N2 (configuration not stated) -15.2%
O=C(NCCn1cc(SCc2ccccc2F)c2ccccc21)c1cccs1 -14.4%
CCc1ccc(CNC(=O)CSc2c3c(nc4ccc(Cl)cc24)CCCC3)cc1 -6.4%
CCS(=O)(=O)NCC(c1ccco1)N1CCN(c2ccccc2)CC1 (configuration not stated) 22.5%
O=c1c(=O)n(-c2ccccc2)ccn1Cc1cccc(C(F)(F)F)c1 -12%
O=C(NCc1ccc(F)cc1)c1ccc(CS(=O)Cc2ccc(Cl)cc2)o1 (configuration not stated) -25.6%
Cc1ccc(NC(=O)c2cc3nc(-c4ccc5c(c4)OCO5)cc(C(F)(F)F)n3n2)cc1Cl -16.6%
Cc1ccc(CSc2ncc(Cl)c(C(=O)Nc3nc4ccc(C)cc4s3)n2)cc1 -15.2%
Oc1c(C(c2ccccc2)N2CCN(c3cccc(Cl)c3)CC2)sc2nc(-c3ccco3)nn12 (configuration not stated) -16%
COc1cc(Cl)c(NC(=O)c2cc(CN3CCCC3)on2)c(OC)c1 4.88%
CCc1ccc(CNC(=O)C2CCCN(c3nnc(C)c4c(C)n(-c5ccc(OC)cc5)nc34)C2)cc1 (configuration not stated) -8.61%
Cc1c(C(=O)Nc2ccccc2Cl)sc2ncnc(N(C)C3CCCCC3)c12 5.74%
Cc1ccc(N2CC(c3nnc(Cc4ccc(F)cc4)o3)CC2=O)cc1 (configuration not stated) -9.57%
COc1ccccc1CNS(=O)(=O)c1cc(Br)cc2c1N(C(C)=O)C(C)C2 (configuration not stated) -11.4%
O=C1COc2ccc(-c3cc(-c4ccc(F)cc4)c4c(n3)-c3cc(Cl)ccc3OC4)cc2N1 -16.7%
CC(C)c1ccc(NC(=O)C2CCCN(S(=O)(=O)c3cccc4nsnc34)C2)cc1 (configuration not stated) -18.7%
COc1ccc2c(c1)CC(C(=O)Nc1cccc(C)c1C)CO2 (configuration not stated) 0.123%
CC(CCc1ccccc1)NC(=O)Cn1c(=O)nc(-c2ccccc2F)c2cc(Cl)ccc21 (configuration not stated) -14.3%
COc1ccc(Cn2ccnc2SCC(=O)NC2CCCC2)cc1 -1.36%
Cc1cccc(C)c1NC(=O)CSc1ncc2c(n1)-c1ccc(Cl)cc1N(Cc1ccccc1)S2(=O)=O -16.1%
Cc1oc(-c2ccccc2F)nc1CSCC(=O)NCc1ccccc1 -17.5%
COc1ccc(C2CC(=O)c3cnc4c(-c5ccccc5)c(C)nn4c3C2)cc1OC (configuration not stated) -4.3%
CCOC(=O)Cn1c(=O)n(C2CCCCC2)c2nc(-c3ccc(OCC)cc3)nc(C(N)=O)c21 10.8%
CSc1ccc(CCNC(=O)c2ccc3c(c2)nc2n3CCCCC2)cc1 -13.7%
